Counter-ions that a name gives are not always drawn. In all, about 2,800 compounds were measured (“cell viability relative to vehicle”: median about 0.98, lowest 2% from about 0.45 on). Some of the results follow.

In this assay the test system is NCI-H2228 alectinib-DTP. Kind of assay: cell viability relative to vehicle (fraction of vehicle); NCI-H2228 is an ALK-positive lung cancer line and DTP means drug-tolerant persister; higher = less growth inhibition. The conditions noted are these: 100 nM; treatment time 6 days. In short, it runs like this:
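NCI-H2228 parental cells and drug-tolerant persister cells were plated in 384-well plates; the persisters had been generated with 1000 nM of a targeted drug over 13 days. One day later, the 3114-agent TargetMol anti-cancer compound library was added at 100 nM, with DMSO serving as vehicle. ATP was measured 6 days after that using the CellTiter-Glo 3D Cell Viability Assay. Values are cell viability expressed relative to vehicle-treated cells.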
`C[C@@H]1CN(C(=O)c2ccc(NC(=O)c3cc(O[C@H](C)c4c(Cl)ccc(F)c4Cl)c(N)nn3)cc2)C[C@H](C)N1` [Ensartinib] showed a cell viability of 1. The value for `Cc1cc(C#N)c(N)s1` [2-Amino-5-methyl-3-thiophenecarbonitrile] was 0.878.

`O=c1[nH]cnc2c1ncn2[C@H]1C[C@H](O)[C@@H](CO)O1` [2'-Deoxyinosine] gave a cell viability of 0.898. Compound `CCOC(=O)c1ccc(OC(=O)CCCCCNC(=N)N)cc1` [Gabexate mesylate] gave a cell viability of 1.04. Take `CN(Cc1ccccc1)c1ccc2cc(C(=O)O)c(=O)oc2c1`: the cell viability was found to be 0.789.

Consider `CCOC(=O)[C@H](CCc1ccccc1)N[C@H]1CCc2ccccc2N(CC(=O)O)C1=O` [Benazepril hydrochloride], for which the cell viability is 1.08. The value for `Cn1cc(-c2ccc(F)c(C(F)(F)F)c2)nc1C1CCN(c2ncnc3[nH]ncc23)CC1` was 0.96. The value for `O=C(Nc1c[nH]nc1-c1nc2ccc(CN3CCOCC3)cc2[nH]1)NC1CC1` was 0.562; that for `CC1(C)Cc2c(sc(NC(=O)c3ccn[nH]3)c2C(N)=O)C(C)(C)O1` was 0.899; that for `C[C@@H]1O[C@@H](Oc2c(-c3cc(O)c(O)c(O)c3)oc3cc(O)cc(O)c3c2=O)[C@H](O)[C@H](O)[C@H]1O` [Myricetrin] was 1.08. The value for `CC(C)[C@H]1C(=O)N[C@@H](CCCNC(=N)N)C(=O)NCC(=O)N[C@@H](CC(=O)O)C(=O)N[C@H](Cc2ccccc2)C(=O)N1C` [Cilengitide] was 0.82; that for `O=C(c1cccc(Cl)c1F)N1CCN(Cc2cccc(Nc3nccs3)n2)CC1` was 0.772. The compound `COc1cc(OC)c2c(=O)[nH]c(-c3cc(C)c(OCCO)c(C)c3)nc2c1` [Apabetalone] yielded a cell viability of 0.986. For the compound `COc1cccc(NC(=O)/C=C/c2ccc(Cl)cc2)c1`, the cell viability was 0.957. `CO/N=C(\C(=O)N[C@@H]1C(=O)N2C(C(=O)O)=C(CSc3nc(=O)c(O)nn3C)CS[C@H]12)c1csc(N)n1` [Ceftriaxone sodium]: the cell viability was found to be 1.12. The value for `COc1ccccc1C(=O)Nc1cc2c(cc1N1CCCCC1)n(C)c(=O)n2C` was 0.977; that for `O=C(Nc1cccc2c(=O)cc(-c3nnn[nH]3)oc12)c1ccc(OCCCCc2ccccc2)cc1` [Pranlukast] was 1.03; that for `CNC(=O)c1ccc(Nc2nc(OC3CCCC3)c3c(-c4ccc5nc(C)oc5c4)c[nH]c3n2)c(OC)c1` was 1.09. `Cc1ccc(C(=O)Nc2ccc(CN3CCN(C)CC3)c(C(F)(F)F)c2)cc1C#Cc1cnc2cccnn12` [Ponatinib] came in with a cell viability of 0.834.

Take `CC(C)(C)NC[C@H](O)COc1nsnc1N1CCOCC1` [Timolol Maleate]: the cell viability was found to be 0.997. The compound `O=C1Nc2ccc(CN3C(=O)CSC3=O)cc2/C1=C/c1cc(CN2CCOCC2)c[nH]1` registered a cell viability of 0.954. `NCCCC[C@H](N[C@@H](CCc1ccccc1)C(=O)O)C(=O)N1CCC[C@H]1C(=O)O` [Lisinopril dihydrate] displayed a cell viability of 1.14.

As to `CCCCCCCCCCCCCCOc1ccc(C(=O)O)o1`, the cell viability turned out to be 1.1.

On to `Cc1ccc(Nc2nnc(Cc3ccncc3)c3ccccc23)cc1Br`, for which the cell viability stood at 0.907. As for `Nc1nc(Cl)nc2c1ncn2[C@@H]1O[C@H](CO)[C@@H](O)[C@@H]1F` [Clofarabine], the cell viability was 0.471. The compound `COc1ccc(-c2cc(=O)c3c(O)cc(O)cc3o2)cc1O` [Diosmetin] had a cell viability of 0.988. On to `CN1CC[C@H](c2c(O)cc(O)c3c(=O)cc(-c4ccccc4Cl)oc23)[C@H](O)C1` [Flavopiridol hydrochloride], for which the cell viability came out at 0.745. `NCCCNc1ccc(Nc2nccc(Nc3cc(C4CC4)[nH]n3)n2)cc1` yielded a cell viability of 0.779. `CN(C)Cc1c(C(=O)NCCOc2ccc(C(=O)NO)cc2)oc2ccccc12` came in with a cell viability of 0.823.

In turn, `COCCN1CCN(Cc2ccc(-c3n[nH]c4c3C(=O)c3c(NC(=O)NN5CCOCC5)cccc3-4)cc2)CC1` yielded a cell viability of 0.3. The compound `O=C1CN2Cc3c(ccc(Cl)c3Cl)N=C2N1` [Anagrelide] registered a cell viability of 1.09. The compound `CC(=O)N1c2ccc(-c3ccc(C(=O)O)cc3)cc2[C@H](Nc2ccc(Cl)cc2)C[C@@H]1C` gave a cell viability of 0.869. The value for `CC(=O)c1cnc2ccc(-c3cc(Cl)c(O)c(Cl)c3)nc2c1N[C@H]1CC[C@H](CN(C)C)CC1` was 0.664; that for `Nc1nc(F)nc2c1ncn2[C@@H]1O[C@H](CO)[C@@H](O)[C@@H]1O` [Fludarabine] was 0.93; that for `COc1ccc(C=O)c(O)c1` [4-Methoxysalicylaldehyde] was 0.873. The value for `CC(C)CC(=O)Nc1n[nH]c2c1CN(C(=O)C1CCN(C)CC1)C2(C)C` was 1.

In turn, `O=C(NCCS(=O)(=O)c1ccc(C(F)(F)F)cn1)c1ccc(Cl)cc1` had a cell viability of 1.07.

In the case of `COc1cccc(CNC(=O)Nc2nc(-c3ccncc3)cs2)c1`, the cell viability was 1.11.

`O=C(CCCCCCNC(=O)c1cnc(N(c2ccccc2)c2ccccc2)nc1)NO` [Rocilinostat] yielded a cell viability of 0.923.

As for `O=c1ncccn1[C@@H]1O[C@H](CO)[C@@H](O)[C@H]1O` [Zebularine], the cell viability is 1.08. The value for `CC(=O)N[C@H]1CSSC[C@@H](C(N)=O)NC(=O)[C@H](C(C)C)NC(=O)[C@H](C)NC(=O)[C@H](Cc2c[nH]cn2)NC1=O` [Exherin trifluoroacetate] was 1.11.

In the case of `CCOC(=O)c1cnn(-c2ccccc2)c1NC(=O)c1cc2nc(-c3ccco3)cc(C(F)(F)Cl)n2n1` [Mycro-3], the cell viability stood at 1.21.

`Cc1ccc(S(=O)(=O)Nc2cc(C(F)(F)F)ccc2C(=O)Nc2nc(-c3ccccc3)cs2)cc1` gave a cell viability of 0.852. `COc1cc(C(N)=O)ccc1NC(=O)[C@@H]1N[C@@H](CC(C)(C)C)[C@@]2(C(=O)Nc3cc(Cl)ccc32)[C@H]1c1cccc(Cl)c1F` had a cell viability of 0.953. `CC(C)n1nc(-c2cc3cc(O)ccc3[nH]2)c2c(N)ncnc21` [Torkinib] showed a cell viability of 0.733. Turning to `NCCC[C@H](N)C(=O)O` [L-Ornithine], the cell viability is 1.01.

Turning to `CNc1nc(Nc2cnn([C@H]3CCN(C4COC4)C[C@@H]3F)c2Cl)ncc1C(F)(F)F`, the cell viability stood at 1.01.

Turning to `CO[C@H]1/C=C/O[C@@]2(C)Oc3c(C)c(O)c4c(c3C2=O)C2=NC3(CCN(CC(C)C)CC3)NC2=C(NC(=O)/C(C)=C\C=C\[C@H](C)[C@H](O)[C@@H](C)[C@@H](O)[C@@H](C)[C@H](OC(C)=O)[C@@H]1C)C4=O` [Rifabutin], the cell viability is 0.768. For `O=c1cc(-c2ccc(O)cc2)oc2cc(O)cc(O)c12` [Apigenin], the cell viability is 0.975. Compound `CCCCCN(CCCOC)C(=O)C(CCC(=O)O)NC(=O)c1ccc(Cl)c(Cl)c1` (stereo not drawn) [Loxiglumide] yielded a cell viability of 0.982. For the compound `NNC(=O)c1ccccn1` [2-Picolinyl hydrazide], the cell viability turned out to be 1.02. On to `c1cnc2cc3c(cc2n1)[C@@H]1CNC[C@H]3C1` [Varenicline Tartrate], for which the cell viability worked out at 0.794. The value for `C[C@@H](N)[C@H]1CC[C@H](C(=O)Nc2ccncc2)CC1` was 0.956. The value for `CCn1cc(C(=O)O)c(=O)c2ccc(C)nc21` [Nalidixic acid sodium salt] was 0.846; that for `CCn1cc(C(=O)O)c(=O)c2ccc(C)nc21` [Nalidixic acid] was 0.885; that for `COc1ccc(-c2oc3c(CC=C(C)C)c(O[C@@H]4O[C@H](CO)[C@@H](O)[C@H](O)[C@H]4O)cc(O)c3c(=O)c2O[C@@H]2O[C@@H](C)[C@H](O)[C@@H](O)[C@H]2O)cc1` [Icariin] was 0.967. Take `C[C@H]1[C@@H](O)O[C@@H]2O[C@@]3(C)CC[C@H]4[C@H](C)CC[C@@H]1[C@@]24OO3` [Dihydroartemisinin]: the cell viability turned out to be 0.987. The value for `COc1ccc2cc(CCC(C)=O)ccc2c1` [Nabumetone] was 1.01. `CN(C)c1ccc(C(=O)NCCCCCCC(=O)NO)cc1` [Histone Deacetylase Inhibitor III]: the cell viability amounted to 0.845. Consider `C#CCN(C)Cc1ccccc1` [Pargyline], for which the cell viability is 1.12. Take `C#CCN(C)Cc1ccccc1` [Pargyline hydrochloride]: the cell viability worked out at 0.784.

In the case of `O=C(COCC(=O)Nc1ccc(Cl)cc1C(=O)O)Nc1cccc(-c2ccoc2)c1`, the cell viability is 1.17.

Turning to `Cc1ccc(-c2nn(C(C)(C)CNC(=O)c3ccncc3)c3ncnc(N)c23)cc1`, the cell viability came to 0.96. The value for `CCO[C@@H]1OC(=O)C[C@@H]1NC(=O)[C@@H]1CCCN1C(=O)[C@@H](NC(=O)c1ccc(N)c(Cl)c1)C(C)(C)C` [Belnacasan] was 1.05.

In turn, `Cc1ccc(NC(=O)c2ccc(CN3CCN(C)CC3)cc2)cc1Nc1nc(-c2cccnc2)cs1` [Masitinib] registered a cell viability of 1.03. Regarding `O=C(Nc1cc(C(F)(F)F)ccc1N1CCCCC1)c1ccncc1`, the cell viability was 1.15. Regarding `NCCS(=O)(=O)O` [Taurine], the cell viability amounted to 1.22. In turn, `COc1cc2nc(N3CCN(C(=O)c4ccco4)CC3)nc(N)c2cc1OC` [Prazosin hydrochloride] registered a cell viability of 1.09. On to `CCCCS(=O)(=O)N[C@@H](Cc1ccc(OCCCCC2CCNCC2)cc1)C(=O)O` [Tirofiban hydrochloride monohydrate], for which the cell viability was determined as 1.02. `Cc1cc(Cn2cnc3c2CC(C(=O)O)N(C(=O)C(c2ccccc2)c2ccccc2)C3)ccc1N(C)C` (stereo not drawn) returned a cell viability of 1.07. `CCn1c(=Cc2cccc[n+]2CC)sc(=C2Sc3ccccc3N2C)c1=O` came in with a cell viability of 1.06. With `O=c1c(O)c(-c2cc(O)c(O)c(O)c2)oc2cc(O)cc(O)c12` [Myricetin], the cell viability was found to be 1.17. `OC[C@@H](O)[C@@H](O)[C@@H](O)[C@@H](O)CO` [Allitol] gave a cell viability of 0.998. Regarding `COc1ccc(-c2cc(=O)c3c(O)cc(O)cc3o2)cc1` [Acacetin], the cell viability was 0.908. As to `Cc1ccc(S(=O)(=O)NC(=O)NN2CC3CCCC3C2)cc1` (stereo not drawn) [Gliclazide], the cell viability was 0.919. In turn, `COc1ccc(C[C@H](NC(=O)[C@H](C)NC(=O)CN2CCOCC2)C(=O)N[C@@H](Cc2ccccc2)C(=O)C2(C)CO2)cc1` (stereo in doubt) showed a cell viability of 1.03. The value for `CCN(CC)C(=O)Cc1csc(NS(=O)(=O)c2cccc(Cl)c2C)n1` was 0.987; that for `CC1(C)CCC[C@](C)([C@H]2CC[C@]3(C)[C@@H]2[C@H](O)C[C@@H]2[C@@]4(C)CC[C@H](O)C(C)(C)[C@@H]4CC[C@]23C)O1` [Panaxadiol] was 0.909.

The values above are taken from the supplement of paper PMC10600219.
